The labels stand for the following.
T1: UNK ZnF1-3 (human, UniProt Q9C0B0 31-174)
T1 sequence: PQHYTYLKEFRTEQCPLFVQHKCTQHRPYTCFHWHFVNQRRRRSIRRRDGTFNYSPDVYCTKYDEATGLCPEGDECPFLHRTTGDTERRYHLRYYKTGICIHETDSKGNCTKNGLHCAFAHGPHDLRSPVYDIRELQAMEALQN

B1: chr12:8504966:8504967:-_ENSMUSG00000054364_ENSMUST00000067384|mus_mus|FALSE|FALSE (ssRNA)
RNA: GGGAGUUCUACAGUCCGACGAUCCAUACAAGUGUGGUCAGAAUGCUGUCUUAUGCAAAUGACAAGUACACUGGGUGUCAAACAAUGGGACAAUUGUGCAAAGAACUCUUUCAUCAACAACAAAAAGCUUCAGCGUUUAAAUAACAACAGAGGAUUGAGCAUCA
B2: chr17:57814845:57814846:+_ENSG00000062716_ENST00000262291|hu_hu|motif|central (ssRNA)
RNA: GGGAGUUCUACAGUCCGACGAUCCUGUUUCUCUAUACGUUGCACAUACUGUUGAUGCACUCCUUCAACAUAAUACGUAGCGGUAAGCACAGCAAGCAGCAGUAAAAAAGACACCACAAUGCUUUGACGAUGCCAUAAUUUUGACAACAGAGGAUUGAGCAUCA
B3: chr1:138071448:138071449:+_ENSMUSG00000041642_ENSMUST00000075164|mus_hu|FALSE|FALSE (ssRNA)
RNA: GGGAGUUCUACAGUCCGACGAUCCUAGAAGACUCCCUGGGGGCUGUGUCGGGGACAGGCCUGAGCUGCAGAGUCGAAGGAGCAGUUCCCUCCUCUGCAAAGCAAACAGAGGAGGCGGCCCUGGAGGGCCGGGGCAGCGGACUCCAACAGAGGAUUGAGCAUCA
B4: 43326760_43339217_387_CDS_ENSMUSG00000022337_ENSMUST00000022962|mouse|control|control (ssRNA)
RNA: GGGAGUUCUACAGUCCGACGAUCAAUGGCAAUCUUACGCUUUCUGGCAGCAGUGUUAGUUGGAUCUUCUUGCAAAAUCCGAUCAUACAGUUGUAUAGCAUCGUCAUAUCUUUCCAUAGCUUCAAAUCGCAUGCCUGUUAACCGCAACAGAGGAUUGAGCAUCA
B5: chr13:100193941:100193942:-_ENSMUSG00000052727_ENSMUST00000064762|mus_mus|motif|central (ssRNA)
RNA: GGGAGUUCUACAGUCCGACGAUCUGUCUGAACUCUCUACAUGGUCAACAUAGAAGUUGAGAAUUCAUUUGUUUUCAAUCGGUUACUUCUCUCACUGAAUGUUUUCCAGGAAAAACAAAAACAAAAAACCAACCCAAGCAAACUCAACAGAGGAUUGAGCAUCA
B6: 12329608_12331292_3055_3pUTR_ENSMUSG00000032625_ENSMUST00000046121|mouse|control|control (ssRNA)
RNA: GGGAGUUCUACAGUCCGACGAUCGAGGGUACAAAUGAGAGUUUUUACAUUUUUCCUUCUUUUUACUUUUCCCAACAAUAGCACGCUUUCUGGUCCUAACUGCACCGCAGUCUCCGUUGCAUGAAGAAAACUUGGACCAGCUGGCAACAGAGGAUUGAGCAUCA
B7: chr7:44244176:44244177:+_ENSG00000106636_ENST00000223369|hu_mus|hu_hu_hu_mus_False|1_88 (ssRNA)
RNA: GGGAGUUCUACAGUCCGACGAUCACUGUCGCUCCGGACGUAGACAUGGCACAGAUACUCUUGUUCUUUGACAGAAGCUCUGCUGCCUUUCCCCGAGCGUUCCACAAUCAGUUGACUUGUAAAGGUCAUGAAUUCCUGAACGCUCAACAGAGGAUUGAGCAUCA
B8: chr5:37680062:37680063:+_ENSMUSG00000029121_ENSMUST00000031004|mus_hu|mus_mus_mus_hu_False|8_8 (ssRNA)
RNA: GGGAGUUCUACAGUCCGACGAUCUUUGGGUGUAGCUGGUACCUCGUACACAGGACCGUCAUACAUGCCCCUGGAAACCCCUUGCAAUCCAAAAACCUUAUUCCUGAUUUUGACGCGCUGGUACAGGUGCUCUGGGAACGCCUUCAACAGAGGAUUGAGCAUCA
B9: chrX:147030916:147030917:+_ENSG00000102081_ENST00000218200|hu_mus|motif|central (ssRNA)
RNA: GGGAGUUCUACAGUCCGACGAUCAAUAUUCCUACCUGCCAAGAUAUAAAAAAGGCACAGAUCAUACAACUCUUUUUUUUGCGGAUGAAAAUAACAAAUGUCACAUCACACACAUUUCAGGGUCCACUAAAAUACUGGAAAAGUCAACAGAGGAUUGAGCAUCA
B10: chr2:74714571:74714572:+_ENSMUSG00000027099_ENSMUST00000028511|mus_hu|FALSE|FALSE (ssRNA)
RNA: GGGAGUUCUACAGUCCGACGAUCCACCAAUAUCUAAUGUAACAUUCAAGUAAAACAUAUUUCAAAAGUUAAGACUCCUGAGACUAACACAUAACUCUAUGACAGCCUGCCUUUACCACGAUCUUCAAAAUAGUGCUGUUCAAUCAACAGAGGAUUGAGCAUCA
B11: chr3:152055631:152055632:+_ENSMUSG00000025437_ENSMUST00000117492|mus_mus|FALSE|FALSE (ssRNA)
RNA: GGGAGUUCUACAGUCCGACGAUCCCAGUUAUGAUUGGUUAGAGUAAUAAGAACAUUAUCGAAGCCAAAGUAUUUACAGUGCUACAAAGGGUUUGCUGGAUCUGCCUGUAGAACAAAGGUCAGAGAACCUAGUUACCAACUGUCCAACAGAGGAUUGAGCAUCA
B12: 128445144_128516786_240_5pUTR_ENSG00000075785_ENST00000265062|human|control|control (ssRNA)
RNA: GGGAGUUCUACAGUCCGACGAUCUCCAGAAUCUCCCAGGAUGAUAACCUUCAGCAACACUUUCUUCCUAGAGGUCAUCCUUCAAACGCGGCCGCUGCGCUGGGGGCUCCGGGCCGGGCGCGUCGCGAGGGCUCCCGCCGAGGACAACAGAGGAUUGAGCAUCA
B13: chr3:179287964:179287965:+_ENSG00000136518_ENST00000429709|hu_hu|hu_hu_hu_mus_True|1_108 (ssRNA)
RNA: GGGAGUUCUACAGUCCGACGAUCCUUUAGAGGUGAAAUGGCCUCCAUGUUCUCCCUGGGCACGCGGAGGGCAUUGGUGUCUAUGUAGUAGGUGGGCCCGCCCUGCUUGCCUUUGUCACCAUCAAUCUCCAUCAUUGUGCUUCCCAACAGAGGAUUGAGCAUCA
B14: chr4:17845017:17845018:+_ENSG00000109805_ENST00000514176|hu_mus|hu_hu_hu_mus_False|28_78 (ssRNA)
RNA: GGGAGUUCUACAGUCCGACGAUCGCUCUCUUAACUUGUAUCUUCAUUAAGGAACUCGCAAGGUUAAAGUUUACUUUUCUGUAGCGCAGCUGUUUUGGCUCGUCUGGUAGUCUCAUCCUUCAUUUCUGAUGGUGGUUCAUGAUCCAACAGAGGAUUGAGCAUCA
B15: 25664507_25664627_160_5pUTR_ENSG00000183726_ENST00000374358|human|control|control (ssRNA)
RNA: GGGAGUUCUACAGUCCGACGAUCAAGUUGCUCUGUGUGCUGAGCGUUCUAAAGGAAGGCGUCCGUUGGCCUUCGUACCCGUCUUGAGUGAGGUGACGAGUGUUUUCUAGUACUGGGGUCGGCCGCGCAGCCCUCUCAGGGGUGCAACAGAGGAUUGAGCAUCA
B16: chr7:149068622:149068623:-_ENSMUSG00000025139_ENSMUST00000001950|mus_hu|mus_mus_mus_hu_False|1_48 (ssRNA)
RNA: GGGAGUUCUACAGUCCGACGAUCGUGAGGCCUCUGAGUGUGGCUUGUGGUCUGUCCUGGGUUAGAGUUGUUAAUAUCACGGAACAUACCACUUAAGACGUUCCAGUCCCGCCUGACACCUUCAUUCCCAAUGGAGAAUCUGCUCAACAGAGGAUUGAGCAUCA
B17: 70785274_70785394_1580_CDS_ENSG00000145734_ENST00000358731|human|control|control (ssRNA)
RNA: GGGAGUUCUACAGUCCGACGAUCUAGGUCUACUUCUAAUGCAACCUGCUCUGCAUCCUCCCUUGAUAAGGUCAGAGACUCUUCUUCAACUGUCUGAGCAUCCUUCUGAGAUCUUUCCGUGUCUGAAAUUCUAGAACUCAUAGACAACAGAGGAUUGAGCAUCA
B18: chr1:58468927:58468928:-_ENSMUSG00000026034_ENSMUST00000148330|mus_mus|mus_mus_mus_hu_False|18_38 (ssRNA)
RNA: GGGAGUUCUACAGUCCGACGAUCAAUUACUGAAAAAGAUGUUCAUUACCUUAGCUAUGUACUUAAUGAACCAAAUUACCCAAACAAAAUAAACAUGUUUACAAAUUAAUGUUAAGAAAAUAACUUACUGUACAAAAUAACUUACAACAGAGGAUUGAGCAUCA
B19: chr7:135850644:135850645:-_ENSMUSG00000048170_ENSMUST00000057557|mus_mus|motif|central (ssRNA)
RNA: GGGAGUUCUACAGUCCGACGAUCGUAGAGGUGUUCCGUGAAGGUACUGUUCUGCGGGCAACCACUCAGGUUAACUGUAAAUUUUCCGGGAGGAAGUACAUCUCUUCUUGUAUACACUGUAGAGAUGAGAUGCAAUAUAAGAUACAACAGAGGAUUGAGCAUCA
B20: 57415345_57415465_633_3pUTR_ENSG00000087460_ENST00000313949|human|control|control (ssRNA)
RNA: GGGAGUUCUACAGUCCGACGAUCCUAGGCACUCGGGGAGGGACAGCUCAAGGUCUGCCUCCUCGUGCUCGUGGUCAGAUUCCGAUUCGGGGGACUCAGGGAAUACCUGGGCGCCGGAGCGGUGGUGGGCGUUAAGGAAGCUCCCAACAGAGGAUUGAGCAUCA
B21: chr4:120564322:120564323:+_ENSMUSG00000032890_ENSMUST00000071093|mus_hu|FALSE|FALSE (ssRNA)
RNA: GGGAGUUCUACAGUCCGACGAUCUCCACACAACACUCCUUUGGGUUUCUUUUCAACAAGACACAAAGAGACGUGGAGACAUUUCAGCCCAUAUCAUCACCAGGAGUGACUAUACCCAGACAAAUGAACAGAUAGAACGUGGUCCAACAGAGGAUUGAGCAUCA
B22: chr7:65705844:65705845:+_ENSG00000169902_ENST00000304842|hu_mus|hu_hu_hu_mus_False|1_1 (ssRNA)
RNA: GGGAGUUCUACAGUCCGACGAUCAAACGGAUCUUUGUUACAUAAAUAAGGUGCCGGCUCCCCAUGUUUAACAAUGACCUCCAGAAGGAAGGCUUGCAUGGCAGAAUCUAGCACUUCAUCUGUGACACCCGCCUCAUCCAGGCGCAACAGAGGAUUGAGCAUCA

These results are taken from PMC12136788.

The other results are listed elsewhere or left out.

In the assay the target is T1, UNK ZnF1-3. As to the kind of experiment: nsRBNS (natural sequence RNA bind-n-seq); RBNS binding buffer (assumed for nsRBNS): 25 mM Tris pH 7.5, 150 mM KCl, 3 mM MgCl2, 0.01% Triton X-100, 500 ug/ml BSA, 20 U/ml SUPERase-In, 4 C; UNK is unkempt and MSI1 is Musashi-1; names of the RNAs are library labels; protein concentration not given here; high values mean tight binding.
Consider B1, for which the binding signal worked out at 1.49 enrichment R. With B2, the binding signal amounted to 1.16 enrichment R. The figure for B3 is 1.26 enrichment R; for B4 it is 0.673 enrichment R; for B5 it is 1.2 enrichment R.

B6 returned a binding signal of 0.4 enrichment R. B7 registered a binding signal of 0.486 enrichment R. The figure for B8 is 0.816 enrichment R; for B9 it is 1.41 enrichment R; for B10 it is 1.42 enrichment R. The figure for B11 is 1.07 enrichment R; for B12 it is 0.879 enrichment R.

As for B13, the binding signal amounted to 0.806 enrichment R. Molecule B14 displayed a binding signal of 0.429 enrichment R. The figure for B15 is 0.892 enrichment R; for B16 it is 0.707 enrichment R; for B17 it is 0.941 enrichment R. In the case of B18 it was 2.31 enrichment R; in that of B19, 1.46 enrichment R; in that of B20, 0.766 enrichment R. In the case of B21 it was 1.15 enrichment R; in that of B22, 0.379 enrichment R.
